Laboratory results reported in PMC4336329 (PLoS ONE, 2015).
About 14,000 (4.5%) of roughly 310,000 compounds showed an effect of 50% or more. Effects have a minus sign here. Some of the results follow.

What follows are compounds tested against human ether-à-go-go-related gene (hERG) potassium channel (human, UniProt Q12809) (assay: primary screen, population patch clamp on CHO cells stably expressing hERG).
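Further: peak tail current of the secondary pulse compared with the same well before compound.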

Sequence of human ether-à-go-go-related gene (hERG) potassium channel (Q12809 whole entry, looked up): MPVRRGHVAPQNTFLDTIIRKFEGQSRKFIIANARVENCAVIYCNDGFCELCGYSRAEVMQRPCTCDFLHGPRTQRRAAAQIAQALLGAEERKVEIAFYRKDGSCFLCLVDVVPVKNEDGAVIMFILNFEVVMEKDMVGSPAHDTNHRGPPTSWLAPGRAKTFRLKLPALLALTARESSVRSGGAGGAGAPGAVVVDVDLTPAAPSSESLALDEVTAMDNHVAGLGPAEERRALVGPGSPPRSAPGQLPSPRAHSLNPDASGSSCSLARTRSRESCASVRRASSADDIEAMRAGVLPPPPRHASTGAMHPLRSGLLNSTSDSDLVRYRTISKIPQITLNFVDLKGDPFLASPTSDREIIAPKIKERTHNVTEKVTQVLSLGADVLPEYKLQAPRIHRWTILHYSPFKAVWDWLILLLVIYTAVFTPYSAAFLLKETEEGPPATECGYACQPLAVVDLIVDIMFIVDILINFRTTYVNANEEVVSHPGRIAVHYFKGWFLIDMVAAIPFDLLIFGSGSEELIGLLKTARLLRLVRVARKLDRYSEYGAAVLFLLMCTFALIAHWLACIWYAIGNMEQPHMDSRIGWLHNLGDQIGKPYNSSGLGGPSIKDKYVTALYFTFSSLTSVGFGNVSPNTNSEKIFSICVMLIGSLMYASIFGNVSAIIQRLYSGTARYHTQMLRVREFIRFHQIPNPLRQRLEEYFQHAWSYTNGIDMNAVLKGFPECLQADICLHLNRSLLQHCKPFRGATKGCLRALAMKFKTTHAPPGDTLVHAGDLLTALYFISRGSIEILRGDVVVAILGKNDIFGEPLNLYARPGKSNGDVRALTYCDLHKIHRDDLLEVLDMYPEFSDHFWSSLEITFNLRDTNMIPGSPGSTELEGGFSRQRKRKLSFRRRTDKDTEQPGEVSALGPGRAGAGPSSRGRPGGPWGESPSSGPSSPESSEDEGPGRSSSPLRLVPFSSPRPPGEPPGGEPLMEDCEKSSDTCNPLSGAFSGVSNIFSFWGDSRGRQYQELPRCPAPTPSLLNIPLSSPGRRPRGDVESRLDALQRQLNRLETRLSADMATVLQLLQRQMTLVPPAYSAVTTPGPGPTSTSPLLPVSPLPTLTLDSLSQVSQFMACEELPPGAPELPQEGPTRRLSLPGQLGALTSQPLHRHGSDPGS

Row | SMILES | hERG current change (%, negative = inhibition) at 10uM [%]
1 | COc1ccc(N2CCCC2)c(NC(=O)COc2ccccc2Cl)c1 | 14.8
2 | Cc1cccc(NC(=O)c2ccc(NCCc3ccccc3)c([N+](=O)[O-])c2)c1 | 6.78
3 | COc1ccccc1NC(=O)COc1coc(CN2CCN(c3ccccc3)CC2)cc1=O | -60
4 | Cc1cc(C)nc(SCCn2c(N(C)Cc3ccccc3)nc3c2c(=O)n(C)c(=O)n3C)n1 | -11.3
5 | COc1ccc(OC)c(-c2csc(NC(=O)C3=NN(c4ccccc4)C(=O)CC3)n2)c1 | -1.6
6 | CNS(=O)(=O)c1cccc(C(=O)NNC(=O)CN(C)S(=O)(=O)c2ccc(Cl)cc2)c1 | 14
7 | CCc1ccc(-c2cc(C(=O)NCc3ccco3)c3ccccc3n2)s1 | -9.4
8 | CCS(=O)(=O)c1ccc2oc(SCC(=O)NCCC3=CCCCC3)nc2c1 | -43.1
9 | CCCCSC1=N/C(=C/c2ccsc2)C(=O)N1c1ccccc1 | 16.9
10 | CCCCNc1c(-c2ccc(-c3ccc(C(C)=O)cc3)c(OC)c2)nc2cnccn12.O=C(O)C(F)(F)F | -52.3
11 | O=C(NCc1cccnc1)c1ccc(-c2cccc(Cl)c2Cl)o1 | -47.9
12 | CCCCC(CC)COP(=O)(OCC(CC)CCCC)OCC(CC)CCCC (stereo not shown) | 7.59
13 | COc1ccc(C(=O)NC2CCCCCCC2)cc1OC | 1.54
14 | CC1CCN(S(=O)(=O)c2cc(C(=O)N3CCN(c4ncccn4)CC3)ccc2Br)CC1 | -72.4
15 | CCN1C(=O)C(CC(=O)Nc2c(C)cccc2C)SC1=Nc1ccc(S(N)(=O)=O)cc1 (stereo not shown) | 1.84
16 | COc1ccc(-c2noc(N3CCCC(C(=O)Nc4ccccc4F)C3)n2)cc1 (stereo not shown) | 15.5
17 | Cn1cnnc1SCC(=O)Nc1ccc2nc(SCc3cccc4ccccc34)sc2c1 | 10.3
18 | O=C1ON=C(c2ccccc2)/C1=C/c1ccc(O)c(O)c1 | 10.2
19 | Cc1ccc(-c2nnn(CC(=O)Nc3cccc4c3CCCC4)n2)o1 | -1.13
20 | Cc1ccnc2nc(C(=O)Nc3ccc(N4CCOCC4)cc3)nn12 | 3.61
21 | COc1ccc(N2COC3c4cccc5cccc(c45)C32)cc1 (stereo not shown) | 12
22 | CNC(=S)NNC(=O)c1cc(-c2cccnc2)nc2ccccc12 | 13.3

Row | SMILES | hERG current change (%, negative = inhibition) at 10uM [%]
23 | COc1ccccc1NC(=O)N(CCN(C)C)Cc1cc2cc(C)ccc2[nH]c1=O | -50.2
24 | COc1cc(/C=N/NC(=O)c2ccccn2)ccc1OC(=O)c1cccs1 | -17.2
25 | O=C(CSc1ncccc1C(=O)O)NCCC1=CCCCC1 | -9.55
26 | Cc1nnc(N(C)C(=O)c2ccncc2)s1 | 18.9
27 | COc1ccc(CCNC(=O)CN(c2cc([N+](=O)[O-])ccc2OC)S(C)(=O)=O)cc1 | 6.33
28 | COc1ccc(-c2nnn(CCc3nn[nH]n3)n2)cc1 | 2.97
29 | COc1ccc(C(=O)N2CCc3cc(OC)c(OC)cc3C2c2ccc(OC)c(OC)c2)cc1 (stereo not shown) | -12
30 | CCN1CCN(Cc2ccc(NC(=O)Nc3ccccc3)cc2)CC1 | -6.93
31 | COc1cccc(-n2c(Cc3cc(=O)[nH]c(=O)[nH]3)nnc2SCC(=O)N2CCCCCC2)c1 | 0.34
32 | S=C(NCCc1ccccc1)NCCc1ccccc1 | 17.9
33 | Cc1ccc(S(=O)(=O)C2C(=O)N(C)C3(C)CC2c2ccccc2O3)cc1 (stereo not shown) | 7.14
34 | O=C(/C=C/Nc1ccc(S(=O)(=O)Nc2ncccn2)cc1)c1ccc2ccccc2c1 | 3.84
35 | COc1ccc(CNc2nc3ccccc3n2CCN2CCCCC2)cc1 | -59.7
36 | CC(C)(C)N(NS(=O)(=O)c1ccc(F)cc1)c1ccccc1 | -4.53
37 | Cc1ccc(CC2CC(=O)N(c3cc(C)ccc3C)C2=O)cc1 (stereo not shown) | 7
38 | Cc1cccc(OCC(=O)Nc2ccc3c(c2)OCO3)c1C | 11.6
39 | Cc1ccc(S(=O)(=O)NCC(=O)NCc2cc(=O)n(C)c(=O)n2C)cc1C | 11.2
40 | c1ccc(CCNc2ncnc3ccccc23)cc1 | -43.2
41 | Cc1nc2ccccc2nc(C)c1=NO | 2.01
42 | Cc1ccc2c(c1)Sc1ccccc1CC2=O | -20.9
43 | Cc1ccc(COc2ccc(C)nc2[N+](=O)[O-])cc1 | 12.7
44 | CN(C)C(CNC(=O)c1ccc(S(=O)(=O)N(C)C)cc1)Cc1ccccc1 (stereo not shown) | 8.37

Row | SMILES | hERG current change (%, negative = inhibition) at 10uM [%]
45 | NC(=O)C1=C[C@H](c2ccc(C(F)(F)F)cc2)C[C@H](OCc2ccc(CO)cc2)O1 | -1.13
46 | COc1cc(C(=O)Nc2cccc(NC(=O)c3ccccc3)c2)cc(OC)c1OC | -18.4
47 | COC(=O)C1=C(C)NC(C)=C(C(=O)OC)C1c1ccc(-c2cccc(Cl)c2Cl)o1 | 7.22
48 | CCOc1nc(-c2ccc(OC)cc2)ccc1-c1noc(C)n1 | -2.61
49 | Fc1ccc(CSc2nnc(-c3ccccn3)o2)cc1 | -6.76
50 | Cc1cccc(NC(=S)NNC(=O)c2ccccc2Br)c1 | 14.8
51 | CN(CCNC(=O)C1CCCN(c2ncnc3c2nc2n3CCCCC2)C1)Cc1ccccc1 (stereo not shown) | -29.1
52 | O=C(NCCO)c1cc(-c2cc(C(=O)NCCO)c3ccccc3n2)nc2ccccc12 | 17.4
53 | Cl.ClCCN1C2=NCCCN2c2ccccc21 | -26.4
54 | Cc1cccc(NC(=O)CCC(=O)N/N=C/c2ccncc2)c1 | 7.94
55 | O=C(O)CNS(=O)(=O)/C=C/c1ccccc1 | 11.4
56 | COc1ccc(CSc2nnc(CNS(C)(=O)=O)o2)cc1 | 11.3
57 | C=CCN1C=C2C(=O)C(C)(OC(=O)C3CCCC3)C(=O)C(c3ccccc3)=C2C=C1CCCC(=O)OC (stereo not shown) | -14.5
58 | NS(=O)(=O)c1ccc(NC(=S)NNC(=O)CCC(=O)Nc2ccccc2Cl)cc1 | 5.62
59 | Clc1ccc(-c2nnc(NCc3ccccc3)c3ccccc23)cc1 | -13.3
60 | Cc1ccc(OCC(=O)N/N=C/c2c[nH]c3ccccc23)c([N+](=O)[O-])c1 | -2.63
61 | COC(=O)c1cc(NC(C)=O)ccc1N1CCOCC1 | 24.8
62 | CCCc1cc(-n2ccnc2)n2c(nc3ccccc32)c1C#N | -29.7
63 | COc1ccccc1C(=O)CSc1nccn1C | -11.1
64 | CCOC(=O)c1sc(NN=C(C(=O)OC)C(=O)OC)c(C(=O)OCC)c1C | -1.62
65 | CCN(CC)CCCN1C(=O)C(=O)/C(=C(/O)c2ccc(Cl)cc2)C1c1ccccn1 (stereo not shown) | 12.8
66 | Cc1nn(C)cc1CN(C)S(=O)(=O)c1cccc([N+](=O)[O-])c1 | 16.8

Row | SMILES | hERG current change (%, negative = inhibition) at 10uM [%]
67 | O=C(C1CC1)N1CCN=C1SCc1cccc(C(F)(F)F)c1 | -12
68 | Cc1nc(C(F)(F)F)nc(Nc2ccc(N=Nc3ccccc3)cc2)c1C#N | 3.25
69 | Cc1ccc(CNC(=O)COC(=O)c2ccc(S(=O)(=O)NCc3ccco3)cc2)cc1 | 6.18
70 | COC(=O)c1[nH]c2ccccc2c1NC(=O)CN1CCCc2ccccc21 | -29.4
71 | Cn1c(SCC(=O)NC(=O)NCc2ccccc2)nnc1C(F)(F)F | -13.7
72 | Nc1c(N2CCCCC2)c(=O)[nH]c(=O)n1-c1ccccc1 | 6.37
73 | CC12CCC(C)(c3nc4ccccc4nc31)C2(C)C | 1.63
74 | COCc1nc2ccccc2n1Cc1cccc(C)c1 | -12.8
75 | CC(=O)Oc1cccc(C(=O)Nc2ccccc2NC(=O)c2cccc(OC(C)=O)c2)c1 | 9.7
76 | Cc1nc(C(C)N(C)Cc2nc(Cc3ccccc3F)no2)c(C)s1 (stereo not shown) | 1.78
77 | CS(=O)(=O)Nc1ccccc1C(=O)NC1CC2CCC1C2 (stereo not shown) | -0.846
78 | O=C(CCc1nc(-c2ccccc2Cl)no1)NC1CCCC1 | 15.3
79 | Cc1ccc(C(=O)N2CCN(CCNC(=O)C(=O)NC(C)C)CC2)cc1 | 9.12
80 | COc1ccc(/C=N\NC(=O)c2ccc(F)cc2)cc1COc1cc(F)ccc1[N+](=O)[O-] | -3.68
81 | CNC(=S)N/N=C/c1cc(C)n(-c2ccc(Cl)c(Cl)c2)c1C | -11.5
82 | Cc1ccc2c(c1)C1CN(C)CCC1N2C(=S)Nc1ccc(Cl)cc1Cl (stereo not shown) | -34.2
83 | CCOC(=O)N1CCN(C(=O)C(=O)Nc2sc3c(c2C#N)CC(C)(C)OC3)CC1 | 23.3
84 | c1ccc(-c2csc3ncnc(NCCN4CCOCC4)c23)cc1 | -20.2
85 | CCOc1cc(/C=C2\C(=O)NC(=O)N(C)C2=O)cc([N+](=O)[O-])c1O | 19.7
86 | COc1ccc(OCc2nc3ccccc3[nH]2)cc1 | 5.05
87 | CCCCn1c(N)c(N(CC(C)C)C(=O)c2cccc(-n3cnnn3)c2)c(=O)[nH]c1=O | 8.41
88 | CC(C)CN1CCN(CC#Cc2ccccc2)CC1CCO (stereo not shown) | -3.92
